From PubChem BioAssay AID651820 (National Center for Advancing Translational Sciences (NCATS), 2012)
Values joined by “and” are separate entries in the source; they are usually repeats but may differ in a detail not shown here. Identical values can stand only once. The whole screen tested about 340,000 compounds, of which about 12,000 (3.5%) were called active. The inconclusive results got no clear call from the source; some entries with a clear call stand among them for comparison. Calls follow the shape of the dose curve; as a rule, active = well fitted inhibition curve with a large enough effect; inconclusive = small, poorly fitted or top-dose-only effect, or another doubt; inactive = no such curve, though single readings can be large or run the other way. A potency beside an inconclusive call is a rough fit, not a confirmed value.

test: qHTS Assay for Inhibitors of Hepatitis C Virus (HCV); details: Huh7.5.1 HCVcc-Cre (HCVcc is cell-culture hepatitis C virus) infection, luciferase reporter, 44 h; activity change, negative = inhibition: at 41.8 µM (top of the series) unless noted
Summary of the method: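 After 44 h co-culture of compound, cells and HCVcc-Cre (~0.5 moi), substrate is added for 15 min at room temperature and luciferase measured over 15 sec. Cells were seeded at 1,000/well and pre-cultured 4 h.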
% is scaled to controls: 0 for no effect and ±100 for the full control effect; potency is read from the fitted curve at half-maximal effect; tags tell the direction and shape of the fitted curve.

Row | Structure (SMILES) | activity change, negative = inhibition | Potency
1 | COc1ccc(S(=O)(=O)N2CCOc3ccccc32)cc1 | inactive: -11.4% | –
2 | FC(F)(F)c1cccc(Cc2noc(CN3CCCC(OCc4ccccn4)C3)n2)c1 (stereo unspecified) | inactive: 12.8% | –
3 | Cc1csc(NC(=O)CSc2ncnc3ccccc23)n1 | – | inconclusive: 20 µM [inhibitor, single point]
4 | Cc1ccc(SCCN2CCN(CCc3ccccc3)CCC2=O)cc1 | – | active: 2.24 µM
5 | COC(=O)c1sccc1NC(=O)Nc1ccccc1F | inactive: 17.1% | –
6 | O=C1/C(=C/c2cccnc2)N=C2CCCCCN12 | inactive: 20.6% | –
7 | CCc1cc(C(=O)Nc2cc(Cl)ccc2N2CCN(C)CC2)sc1C | – | inconclusive: 31.6 µM [inhibitor, single point]
8 | CC(C)=C(NC(=O)c1ccccc1Br)C(=O)NCCc1nc2ccccc2[nH]1 | inactive: -10.7% | –
9 | CCOC(=O)C1=C(COC(=O)[C@@H](NC(=O)c2cccc(C)c2)C(C)C)NC(=O)NC1C (stereo partly specified) | inactive: 8.74% | –
10 | O=C(NCCOC(=O)c1ccccc1C(=O)OCCNC(=O)c1cccnc1)c1cccnc1 | inactive: 10.1% | –
11 | O=S(=O)(NC1CCCCC1)c1cccc(-c2nnc(-c3ccccc3)o2)c1 | – | inconclusive: 14.1 µM [inhibitor, single point]
12 | Cc1ccc(S(=O)(=O)NCCC(=O)Nc2cccc(S(N)(=O)=O)c2)cc1C | – | inconclusive: 31.6 µM [inhibitor, single point]
13 | Cc1ccc2nc(-c3ccccc3)cc(C(=O)Nc3cccnc3)c2c1 | inactive: 2.5% | –
14 | CC(C)CCC1(CCO)C(=O)N=C(N)NC1=O (stereo unspecified) | inactive: 23.7% | –
15 | COc1ccc(-n2c(N)c(-c3nc4ccccc4n3C)sc2=S)cc1 | inactive: -15.7% | –
16 | CCn1c2ccccc2c2cc(/C=N/n3cnnc3)ccc21 | – | active: 7.94 µM
17 | CCN(CC)c1ccc([C@H]2[C@@H]3CCCC[C@]3(O)CCN2CC(=O)NCc2ccco2)cc1 | inactive: -1.58% | –
18 | CCOc1ccccc1N1CCN(C(=O)c2cccc(-c3ccc(O)cc3)c2)CC1 | – | inconclusive: 6.31 µM [inhibitor, partial curve]
19 | O=C(OCCOc1cccc(Cl)c1)c1cc(S(=O)(=O)N2CCCCC2)ccc1N1CCOCC1 | – | inconclusive: 5.01 µM [inhibitor, partial curve]
20 | Cc1ccc(NC(=S)N(CCN(C)C)Cc2cccs2)cc1 | – | inconclusive: 31.6 µM [inhibitor, single point]
21 | O=C(Cc1cc(=O)[nH][nH]1)N/N=C/c1cccc(Cl)c1Cl | – | inactive
22 | C=CC[n+]1c(-c2ccccc2)csc1NC(C)(C)C | inactive: 5.13% | –
23 | O=C(NCc1ccccc1Cl)C1CCN(c2cnccn2)CC1 | inactive: -2.22% | –
24 | COc1cc2c(cc1OC)[C@@]13CCN4CC5=CCO[C@H]6CC(=O)N2[C@H]1[C@H]6[C@H]5C[C@H]43 | – | inconclusive: 1.12 µM [inhibitor, full curve, poor fit]

Row | Structure (SMILES) | activity change, negative = inhibition | Potency
25 | COc1ccc(C(=O)c2ccccc2)c2c(O)ccc(C(=O)c3ccccc3)c12 | – | active: 2.51 µM
26 | Cn1cc(CC(=O)NCCN2CCOCC2)c2ccccc21 | – | inconclusive: 20 µM [inhibitor, single point]
27 | Cc1ccc(C(=O)N2NC(c3ccccc3F)C3C(=O)N(c4cccc(C)c4)C(=O)C32)cc1 (stereo unspecified) | inactive: 23.9% | –
28 | C=CCN1c2ccccc2[C@]23C[C@@H](C(=O)OC)N(C(=O)c4cc(C)oc4C)C2=NC(C(=O)OC)=C(C(=O)OC)[C@H]13 | – | inconclusive: 31.6 µM [inhibitor, single point]
29 | CC1CCCN(CCOCCOc2ccc(Br)cc2Cl)C1 (stereo unspecified) | – | inconclusive: 17.8 µM [inhibitor, partial curve]
30 | CCCN1CCN(C(=O)C2CCN(c3nnc(C)c4c(C)n(-c5ccc(C)cc5)nc34)CC2)CC1 | – | active: 2.24 µM
31 | COc1ccc(CCC(=O)NCc2ccco2)cc1 | inactive: 6.32% | –
32 | CCN(CC)CCN(Cc1cc2cc(C)ccc2[nH]c1=O)C(=S)NCc1ccco1 | – | inconclusive: 28.2 µM [inhibitor, single point]
33 | COC(=O)c1cccc(Cn2c(Cl)c(/C=N/NC(=O)c3ccco3)sc2=O)c1 | inactive: -21% | –
34 | CCCc1c(C(=O)N/N=C/c2ccccc2C(F)(F)F)nnn1-c1nonc1N | – | inconclusive: 2 µM [inhibitor, full curve]
35 | CC1Cc2ccccc2N1C(=O)COc1cccc(-n2cnnn2)c1 (stereo unspecified) | – | inconclusive: 28.2 µM [inhibitor, single point]
36 | O=S1(=O)CCOC[C@H](Cc2ccccc2)N1Cc1cccc(C(F)(F)F)c1 | – | inconclusive: 3.16 µM [inhibitor, full curve]
37 | Cn1nnnc1SCCNC(=O)C1CCC(=O)N(Cc2ccccc2F)C1 (stereo unspecified) | – | inconclusive: 22.4 µM [inhibitor, single point]
38 | CCOC(=O)c1ccccc1NC(=O)c1ccc2c(=O)n3c(nc2c1)CCCCC3 | – | inconclusive: 3.16 µM [inhibitor, partial curve]
39 | COc1ccc(C)cc1NC(=O)c1ccc(NS(=O)(=O)c2cccc3cccnc23)cc1 | – | inconclusive: 22.4 µM [inhibitor, single point]
40 | Cc1cc2c(NC3CCCCC3)ncnc2s1 | – | active: 10 µM
41 | CCOC(=O)N1CCN(C(=O)c2ccc(S(=O)(=O)Nc3ccccc3)cc2)CC1 | – | inconclusive: 2 µM [inhibitor, single point]
42 | COc1ccc(N2C(=O)CC2(/C=C/c2ccccc2OC)C(=O)NC2CCCC2)cc1 (stereo unspecified) | inactive: -23.7% | –
43 | COc1ccc(C(=O)Nc2cnn(Cc3ccc(Cl)cc3)c2)cc1OC | inactive: -16.8% | –
44 | Cc1nc2ccc(C(=O)Nc3ccc4nc[nH]c4c3)cc2[nH]1 | inactive: 22.6% | –
45 | CCC(CC)C(=O)N(c1ccc(F)cc1)C1C=CS(=O)(=O)C1 (stereo unspecified) | – | inconclusive: 1.78 µM [inhibitor, partial curve]
46 | CCOC(=O)C(=CNc1ccccc1Cl)C(=O)OCC | – | inconclusive: 2.24 µM [inhibitor, full curve]
47 | CC[N+](C)(CC)CCCOC(=O)C(O)(c1ccccc1)C1CCCCC1 (stereo unspecified) | inactive: 8% | –
48 | COCc1ccc(CN2CCCC(CCC(=O)NCc3cccc(OC)c3)C2)o1 (stereo unspecified) | – | inconclusive: 31.6 µM [inhibitor, single point]

Row | Structure (SMILES) | activity change, negative = inhibition | Potency
49 | CN(C(=O)c1cccc(NC(=O)Cc2cccc([N+](=O)[O-])c2)c1)C1CC1 | – | inconclusive: 3.55 µM [inhibitor, single point]
50 | Cc1ccc(OCC(=O)Nc2ccc(S(=O)(=O)Nc3ccccn3)cc2)cc1C | – | inconclusive: 11.2 µM [inhibitor, single point]
51 | COc1ccc(NC(=S)N2CCN(C(=O)c3ccco3)CC2)c(OC)c1 | – | inconclusive: 5.62 µM [inhibitor, single point]
52 | COc1ccc2c(c1)nc(SCC(=O)c1ccc(Br)s1)n2C | – | inconclusive: 11.2 µM [inhibitor, partial curve]
53 | Cc1cc(SCC(=O)N2CCC(c3noc4ccc(F)cc34)CC2)nc2ccccc12 | – | inconclusive: 12.6 µM [inhibitor, single point]
54 | Cc1cc(C(=O)C(C)OC(=O)c2ccc(NC(=O)CC#N)cc2)c(C)n1-c1ccc(OC(F)F)cc1 (stereo unspecified) | – | inconclusive: 22.4 µM [inhibitor, single point]
55 | CC(C)(C)NC(=O)CN(C(=O)CCN1CCCc2ccccc21)C(C)(C)C | inactive: -2.16% | –
56 | O=C(CN(C(=O)CSc1nnc(COc2ccccc2)o1)c1ccc(F)cc1)NC1CCCCC1 | – | inactive and inconclusive: 10 µM [inhibitor, partial curve, poor fit]
57 | CCOC(=O)c1[nH]c(C)c(C(=O)OCC(=O)NCc2ccc(OC)c(OC)c2)c1C | – | inconclusive: 10 µM [inhibitor, partial curve]
58 | COc1ccc(-c2nnc(CSc3ncnc4sc5c(c34)CCC5)o2)cc1OC | – | inconclusive: 501 nM [inhibitor, full curve, poor fit] and inconclusive: 8.91 µM [inhibitor, partial curve, poor fit]
59 | COc1ccccc1C(C[N+](=O)[O-])c1c(N)n(C)c(=O)n(C)c1=O (stereo unspecified) | – | active: 11.2 µM
60 | CCc1ccc(C2C(C#N)=C(N)C(C#N)(C#N)C3=CCC(C(C)(C)C)CC32)cc1 (stereo unspecified) | – | inconclusive: 25.1 µM [inhibitor, single point]
61 | O=C(CCl)Nc1cc2[nH]c(=O)[nH]c2cc1Br | – | active: 6.31 µM
62 | O=C(NCCN1C(=O)S/C(=C\c2ccc(Cl)c(Cl)c2)C1=O)C1COc2ccccc2O1 (stereo unspecified) | – | inconclusive: 31.6 µM [inhibitor, single point]
63 | CC(=O)Nc1ccc(NC(=S)NC(=O)C2CCCC2)cc1 | inactive: 11.9% | –
64 | CCOC(=O)N1CCN(CC(=O)Nc2nc3ccccc3s2)CC1 | – | inconclusive: 31.6 µM [inhibitor, single point]
65 | N#Cc1nc(-c2cccs2)oc1NCC1CCCO1 (stereo unspecified) | – | inconclusive: 3.98 µM [inhibitor, full curve]
66 | Cc1ccc(S(=O)(=O)N2CCC(=O)N(C(COCc3ccc(C(F)(F)F)cc3)Cc3ccccc3)CC2)cc1 (stereo unspecified) | – | inconclusive: 11.2 µM [inhibitor, partial curve]
67 | COc1ccc(C)cc1NC(=O)C(=O)NNC(=O)COc1ccc(Cl)cc1 | – | inconclusive: 10 µM [inhibitor, single point]
68 | Cn1c(CNC(=O)c2ccco2)nnc1SCC(=O)Nc1ccc(Cl)cc1 | inactive: 5.86% | –
69 | CSCCC(NC(=O)COc1ccccc1)C(=O)N(C)Cc1ccc(Cl)cc1Cl (stereo unspecified) | – | inconclusive: 10 µM [inhibitor, single point]
70 | O=C(N/N=C/c1cc(Br)ccc1O)C(c1ccncc1)N1CCOCC1 (stereo unspecified) | – | inconclusive: 3.16 µM [inhibitor, single point]
71 | Cc1ccccc1S(=O)(=O)Cc1ccc(C(=O)N(C)C2CCCCC2)o1 | inactive: -8.28% | –
